# Assay results reported in PubChem BioAssay AID686979 (National Center for Advancing Translational Sciences (NCATS), 2013).
# About 50,000 (12%) of roughly 420,000 compounds were called active. Inconclusive results, whose numbers are uncertain, are shown with a selection of clear calls. Calls follow the shape of the dose curve; as a rule, active = well fitted inhibition curve with a large enough effect; inconclusive = small, poorly fitted or top-dose-only effect; inactive = flat fitted curve, though single readings scatter. No potency is given beside an inconclusive call; the fits are too rough.
# Test: qHTS for Inhibitors of human tyrosyl-DNA phosphodiesterase 1 (TDP1): qHTS in cells in presence of CPT; also: nearly all actives have a fitted effect of over 55% in size
# Conditions: chicken DT40 Tdp1-/-;hTDP1 cells + 20 nM CPT, ATP luminescence, 48 h; activity change, negative = growth inhibition: at 46.2 µM (top of the series) unless noted
# How it was run: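 Chicken DT40 Tdp1-/- cells stably complemented with human TDP1 were seeded at 400 cells/well in medium containing 20 nM camptothecin, exposed to pin-transferred compounds, and grown at 37 °C for at least 48 hr. Viability was read as ATP luminescence.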
# % is scaled to controls: 0 for no effect and ±100 for the full control effect; potency is read from the fitted curve at half-maximal effect; tags tell the direction and shape of the fitted curve.
Structure (SMILES),Potency,"activity change, negative = growth inhibition"
COc1cc(-c2nc3ccccn3c2Nc2ccccc2C)ccc1O,"inconclusive [inhibitor, single point]",–
CCOc1ccccc1NC(=O)COC(=O)c1cn(CC)c2nc(C)ccc2c1=O,active: 18.4 µM,–
Clc1ccc(OCCOCCOc2cccc3cccnc23)c(Br)c1,active: 23.1 µM,–
COCCCn1c(SCC(=O)NC2CCCC2)nnc1-c1ccccc1,–,inactive: 1.09%
CCOC(=O)c1cnc2c(cnn2CC)c1NN=C(C)C,"inconclusive [inhibitor, single point]",–
COc1ccccc1NC(=O)N1CCN(c2nnc(C)c3c(C)n(-c4ccc(Cl)cc4)nc23)CC1,–,inactive: 1.26%
COc1ccc(-c2nn(-c3ccccc3)cc2CNC(C)Cn2cncn2)c(F)c1 (centres undefined),"inconclusive [inhibitor, partial curve, poor fit]",–
O=C(N1CCN(c2ccccc2)CC1)C1(S(=O)(=O)c2ccc(Cl)cc2)CC1,"inconclusive [inhibitor, partial curve, poor fit]",–
COc1ccc(CNC(=O)c2cc(=O)c3ccc(C)c(C)c3o2)cc1,–,inactive: 13.2%
COc1ccc(CC(=O)NCCc2sc(-c3ccc(Cl)cc3)nc2C)cc1OC,"inconclusive [inhibitor, single point]",–
Cc1cccc(-c2cccc(NC(=O)C3CCCN(C(=O)c4cccnc4)C3)c2)c1 (centres undefined),active: 18.4 µM,–
O=C(NC12CC3CC(CC(C3)C1)C2)c1ccc(-c2cccc(Cl)c2)o1,"inconclusive [inhibitor, single point]",–
COc1ccccc1Cc1c(-c2ccc(OC)c(OC)c2)nc2ccc(Cl)cn12,"inconclusive [inhibitor, single point]",–
CCc1ccc(Nc2n[n+](-c3ccccc3)c(-c3c(Cl)cccc3Cl)s2)cc1,active: 23.1 µM,–
Cc1[nH]c2ccccc2c1C(c1ccccn1)N1CCC(C)CC1 (centres undefined),active: 20.6 µM,–
Cc1cccc(/C(N)=N/OC(=O)c2ccncc2)c1,–,inactive: -0.133%
CC(NC(=O)c1ccccc1F)c1nnc(SCC(=O)NC2=NCCS2)n1C (centres undefined),–,inactive: 13.2%
Clc1c(CSc2nc3ccccc3o2)nc2sccn12,"inconclusive [inhibitor, partial curve, poor fit]",–
CN(CCc1ccccc1)C(=O)c1ccc(NC(=O)Cc2cccc(NC(=O)C3CCN(C(=O)c4ccccc4)CC3)c2)cc1,"inconclusive [inhibitor, single point]",–
CCN(CC)c1ccc(/C=N/OCC(=O)N2CCCc3ccccc32)cc1,"inconclusive [inhibitor, single point]",–
CC(C)c1nc(N(C)S(C)(=O)=O)nc(-c2ccc(F)cc2)c1/C=C/C(O)CC(O)CC(=O)O (centres undefined),–,inactive: -19.8%
CC(=O)Nc1nonc1-c1nc2ccccc2n1N(C(C)=O)C(C)=O,–,inactive: -14.7%

Structure (SMILES),Potency,"activity change, negative = growth inhibition"
Cc1ccc(C)c(-c2cc(C(=O)Nc3cccnc3)c3ccccc3n2)c1,–,inactive: -17.7%
COCCn1c(=O)c(-c2ccccc2)nc2cnc(N(C)C)nc21,"inconclusive [inhibitor, single point]",–
Cc1ccc(S(=O)(=O)NC(=O)Nc2nc(-c3ccc(F)c(F)c3)cs2)cc1,–,inactive: 4.32%
COc1cccc(CNC(=O)C(=O)NCCc2ccc(OC)c(OC)c2)c1,"inconclusive [inhibitor, single point]",–
CCOC(=O)CSc1nncc2ccc(OC)c(OC)c12,"inconclusive [inhibitor, partial curve, poor fit]",–
COc1ccccc1NC(=O)Nc1nc2ccc(S(N)(=O)=O)cc2s1,"inconclusive [inhibitor, single point]",–
COc1ccccc1CNS(=O)(=O)c1ccc(-c2cc(C(F)(F)F)on2)s1,active: 23.1 µM,–
Cc1cc(C)c2c(CN3CCN(Cc4ccc5c(c4)OCO5)CC3)cc(=O)oc2c1,"inconclusive [inhibitor, single point]",–
CC(C)c1ccc(CC(=O)N2CCC2(C)C(=O)Nc2ccc3c(c2)OCO3)cc1 (centres undefined),"inconclusive [inhibitor, partial curve, poor fit]",–
COc1cc(-c2c(C#N)c(N)nc3c2c(C)nn3-c2ccc(C)c(C)c2)cc(OC)c1OC,"inconclusive [inhibitor, single point]",–
CC1Cc2ccccc2N1C(=O)COC(=O)c1c2c(nc3ccccc13)CCCCC2 (centres undefined),active: 8.2 µM,–
CN(CC(=O)Nc1ccc(F)c(F)c1F)C(=O)c1ccc(-n2cncn2)c([N+](=O)[O-])c1,"inconclusive [inhibitor, partial curve, poor fit]",–
C=CC[C@@H](CC(=O)N(CCO)Cc1ccccc1)C(=O)N[C@H](COC(=O)[C@@H](CC=C)CC(=O)OC(C)(C)C)Cc1c[nH]c2ccccc12,active: 18.4 µM,–
Cc1ccc(SCc2c(C(=O)N/N=C/c3ccncc3)nnn2-c2nonc2N)cc1,"inconclusive [inhibitor, single point]",–
CN(Cc1ccccc1)S(=O)(=O)c1ccc(Cl)c(C(=O)NCc2ccc3c(c2)OCO3)c1,"inconclusive [inhibitor, partial curve]",–
O=C(c1cccc(S(=O)(=O)NCc2ccc3c(c2)OCO3)c1)N1CCCC1,–,inactive: 0.648%
CN=c1scc(C)n1/N=C/c1ccc(O)cc1,"inconclusive [inhibitor, single point]",–
COC(=O)c1ccc(NC(=O)c2cc[n+]([O-])cc2)cc1,–,inactive: 19.3%
Cn1nc(-c2ccccc2F)c2cc(C(=O)NCc3ccc(Cl)cc3)sc21,"inconclusive [inhibitor, partial curve]",–
CC1=C(C(=O)OC(C)C)C(c2cncc(-c3ccc(F)cc3)c2)C(C#N)=C(N)O1 (centres undefined),"inconclusive [inhibitor, single point]",–
COC(=O)c1ccc2nc(-c3ccc(C)cc3)c(CC3CCCCC3)n2c1,active: 20.6 µM,–
CCC(C(=O)N1CCN(c2ccccn2)CC1)n1nc(C)n2c(cc3occc32)c1=O (centres undefined),"inconclusive [inhibitor, single point]",–
